Hit rate of the full screen: of about 120,000 compounds, about 5,300 (4.4%) were called active. Inconclusive means that the source gave no clear call. Such entries were picked first, then a sample of the others. Calls follow the shape of the dose curve; as a rule, active = well fitted inhibition curve with a large enough effect; inconclusive = small, poorly fitted or top-dose-only effect; inactive = no such curve, though single readings can be large or run the other way. Potencies of inconclusive entries are doubtful fits and often do not repeat.
Assay: qHTS Primary assay for Inhibitors of Plasmodium falciparum Dd2 growth in vitro; also: nearly all actives have a fitted effect of over 65% in size;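 as to activity, negative = inhibition: plate controls were DMSO vehicle for no effect and reference drug for full effect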
Settings: P. falciparum Dd2 growth, SYBR Green, 72 h; activity, negative = inhibition: at 28.9 µM (top of the series) unless noted; series mostly up to 28.9 µM
Summary of the method: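 Infected erythrocytes (Dd2, 0.3% parasitemia, 2.5% hematocrit final) are added to compound in RPMI-1640/Albumax II medium, grown 72 h at 37C in low oxygen, then lysed with saponin/Triton-X containing SYBR Green and read by fluorescence.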
Potency is read from the fitted curve at half-maximal effect; tags tell the direction and shape of the fitted curve.

For Cc1ccc(C(=O)N2CCC(Oc3ccc(C(=O)N(C)C)cn3)CC2)cc1F, which Potency is on record?
The Potency was “inactive”.

Which Potency does the source give for COc1cc2c(C(=O)N3CCN(c4cccc(C)c4)C(C)C3)cn(CC(C)C)c(=O)c2cc1OC (stereo unspecified) here?
Its Potency is inconclusive: 15.8 µM [inhibitor, single point].

With Cc1ncc2c(n1)C[C@@H]1CC[C@H]2N1C(=O)COc1ccc(F)cc1 as the compound, how does the Potency read?
Its Potency is “inactive”.

Which Potency does the source give for COc1ccc(C(=O)N2CC[C@@H]3CN(S(C)(=O)=O)[C@@H]3C2)c(C)c1 here?
The Potency was “inactive”.

With N#Cc1ccc(CN2CCCC3(CN[S+](=O)([O-])c4cccnc4O3)C2)cc1 (stereo unspecified) as the compound, how does the Potency read?
The Potency was “inactive”.

For O=C1CCN(C(=O)C2CCCCC2)CCCC(c2nc(-c3ccccc3)no2)CCN1 (stereo unspecified), which Potency is on record?
The Potency was inconclusive: 7.94 µM [inhibitor, partial curve, poor fit].

Which Potency does the source give for COc1ccc(Cl)cc1NC(=O)c1cc(S(=O)(=O)N2CCc3ccccc32)cn1C here?
Its Potency is inconclusive: 11.2 µM [inhibitor, single point].

With CC(C)=CCN1C[C@H](NC(=O)CCc2cccs2)C[C@H]1C(=O)NC(C)C as the compound, how does the Potency read?
Its Potency is inconclusive: 11.2 µM [inhibitor, single point].

Which Potency does the source give for CNC(=O)c1cccc(-c2cnc(Nc3ccncc3)c3c2CCO3)c1 here?
Its Potency is inconclusive: 22.4 µM [inhibitor, single point].

Which Potency does the source give for CC(C)c1ccc(C2=CC(c3cccc(Cl)c3)n3ncnc3N2)cc1 (stereo unspecified) here?
Its Potency is “inactive”.

For CCCN1C(C(=O)c2ccccc2)=C(OC(=O)c2ccc(F)cc2)c2ccccc2S1(=O)=O, which Potency is on record?
The Potency was inconclusive: 17.8 µM [inhibitor, single point].

With Cc1cc(N2CCCN(c3nccc(-c4c(C)nn(C)c4C)n3)CC2)ccn1 as the compound, how does the Potency read?
The Potency was inconclusive: 7.08 µM [inhibitor, partial curve, poor fit].

With O=C(NCc1ccco1)c1ccc2c(c1)N(Cc1ccc(F)cc1)C(=O)c1ccccc1S2=O (stereo unspecified) as the compound, how does the Potency read?
Its Potency is inconclusive: 17.8 µM [inhibitor, single point].

Which Potency does the source give for CCOc1ccccc1NC(=O)c1sc2nc3c(cc2c1N)CN(Cc1ccccc1)CC3 here?
Its Potency is active: 10 µM.

With O=C(NC1CCCC1)c1cn(C2CCN(C(=O)c3cccnc3)CC2)nn1 as the compound, how does the Potency read?
Its Potency is “inactive”.

With COc1ccccc1NC(=O)c1c(C)oc2c1CN(Cc1ccc(F)cc1)CC2 as the compound, how does the Potency read?
The Potency was inconclusive: 10 µM [inhibitor, single point].

Which Potency does the source give for Cc1noc(C)c1[S+](=O)([O-])N1CCC2(CC1)COc1ccccc1NC2=O here?
The Potency was active: 8.91 µM.

For COc1cccc(C(=O)CN2CCN(S(=O)(=O)c3ccc(Cl)cc3)CC2)c1, which Potency is on record?
The Potency was inconclusive: 10 µM [inhibitor, single point].

Which Potency does the source give for COc1cccc(Cc2nc3ccccc3nc2SCC(=O)N2CCCCC2C)c1 (stereo unspecified) here?
Its Potency is inconclusive: 10 µM [inhibitor, single point].

With Cc1ccc(CN2CC[C@H](c3nnc(-c4ccco4)o3)C2)o1 as the compound, how does the Potency read?
The Potency was inconclusive: 22.4 µM [inhibitor, single point].

With Cc1ncccc1C(=O)N1CCC(Oc2ccc(-c3noc(-c4ccccc4)n3)cc2)C1 (stereo unspecified) as the compound, how does the Potency read?
Its Potency is inconclusive: 3.98 µM [inhibitor, single point].

For CN(Cc1ccccc1)Cc1cn([C@H]2CO[C@H]3[C@@H]2OC[C@@H]3NCc2ccco2)nn1, which Potency is on record?
The Potency was inconclusive: 35.5 µM [inhibitor, partial curve, poor fit].

For O=C(Cn1cccc1-c1nc(-c2ccc(F)cc2)no1)Nc1cccc(Cl)c1, which Potency is on record?
The Potency was inconclusive: 3.98 µM [inhibitor, single point].

Which Potency does the source give for COc1ccc(NC(=O)[C@@H]2C[C@@H](c3ccc(F)cc3)N([S+](=O)([O-])c3ccccc3)C2)cc1 here?
The Potency was active: 8.91 µM.

For CC(=O)Nc1ccc(CN2CCC3(CC(c4cccc(C(F)(F)F)c4)=NO3)C2)cc1 (stereo unspecified), which Potency is on record?
The Potency was inconclusive: 5.62 µM [inhibitor, partial curve, poor fit].

For COCC1CN(Cc2sccc2C)CC12CCNCC2 (stereo unspecified), which Potency is on record?
The Potency was inconclusive: 8.91 µM [inhibitor, partial curve, poor fit].

Which Potency does the source give for Cc1ccn2c(Nc3ccc4c(c3)OCO4)c(-c3ccc(O)cc3)nc2c1 here?
The Potency was active: 12.6 µM.

Which Potency does the source give for COc1ccc(-c2ccnc3nc(-c4cccs4)nn23)c(F)c1 here?
The Potency was inconclusive: 12.6 µM [inhibitor, partial curve, poor fit].

For CCCOC(=O)C(C)n1nnc2sc(-c3ccccc3)cc2c1=O (stereo unspecified), which Potency is on record?
Its Potency is “inactive”.

With Cc1ccncc1C(=O)N1CCC2(CC1)CC(N1CCN(c3ccccn3)CC1)CCO2 (stereo unspecified) as the compound, how does the Potency read?
The Potency was “inactive”.

Which Potency does the source give for O=C(Nc1ccc2oc(-c3cccnc3)nc2c1)c1ccc(-c2cccc(OC(F)(F)F)c2)o1 here?
Its Potency is inconclusive: 11.2 µM [inhibitor, partial curve].

Which Potency does the source give for COc1ccc(NC(=O)c2nc(SCc3ccccc3F)ncc2Cl)cc1 here?
Its Potency is inconclusive: 6.31 µM [inhibitor, partial curve].

With CCOc1cc(=O)n2c(c1C(=O)Nc1ccc(C#N)cc1)CCCC2 as the compound, how does the Potency read?
The Potency was “inactive”.

For Cc1ccc(C)c(NC(=O)CCc2c(C)n(C)c3cc(-c4ccccc4C)nn3c2=O)c1, which Potency is on record?
Its Potency is inconclusive: 11.2 µM [inhibitor, single point].

For CC(C)Oc1ccc(CNC(=O)c2ccc3nc(SCc4ccc(F)cc4)n(C)c3c2)cc1, which Potency is on record?
The Potency was inconclusive: 20 µM [inhibitor, single point].

For O=[N+]([O-])c1ccccc1-c1ncc[nH]1, which Potency is on record?
Its Potency is “inactive”.

With CC(NC(=O)c1ccc2nc(CCc3ccccc3)oc2c1)c1ccccc1 (stereo unspecified) as the compound, how does the Potency read?
The Potency was “inactive”.

Which Potency does the source give for COc1ccc(CN2CCCC23Cc2ccccc2CNC3=O)cc1 (stereo unspecified) here?
Its Potency is inconclusive: 11.2 µM [inhibitor, single point].

For NCc1ccccc1-c1cccs1, which Potency is on record?
The Potency was inconclusive: 11.2 µM [inhibitor, single point].

For COc1cc(-c2cccs2)cc2c1OCCN(C(=O)C(C)Cn1cncn1)C2 (stereo unspecified), which Potency is on record?
Its Potency is “inactive”.

With Cc1ncsc1C1N(C2CCN(S(=O)(=O)c3ccccc3)CC2)C(=O)C12CCCC2 (stereo unspecified) as the compound, how does the Potency read?
The Potency was inconclusive: 3.98 µM [inhibitor, single point].

Which activity, negative = inhibition does the source give for O=C(NCc1cccc(F)c1)N1CCc2nc3cc(-c4ccccc4)[nH]n3c(=O)c2C1 here?
The activity, negative = inhibition was inactive: 87.8% [at 5.79 µM].

With COc1ccc(CCNC(=O)c2c(C)noc2-c2ccc(OC(F)(F)F)cc2)cc1 as the compound, how does the Potency read?
Its Potency is inconclusive: 7.08 µM [inhibitor, partial curve, poor fit].

With COc1ccc(Nc2cc3c(cn2)CN(CCc2ccccc2)CCN3)cc1OC as the compound, how does the Potency read?
Its Potency is active: 10 µM.

With Cc1ccc(-c2noc(CCCC(=O)N3CCc4nc5cc[nH]n5c(=O)c4C3)n2)cc1 as the compound, how does the activity, negative = inhibition read?
Its activity, negative = inhibition is inactive: -14.7% [at 5.79 µM].

With CCCCN(CC)C(=O)CSc1nc2n[nH]c(C)c2c(=N)n1-c1cccc(C)c1 as the compound, how does the Potency read?
The Potency was inconclusive: 17.8 µM [inhibitor, single point].

With NC(=O)COc1ccc(C(=O)N[C@@H]2CNCCC[C@H]2O)cc1 as the compound, how does the Potency read?
Its Potency is “inactive”.

With O=C(Nc1ccc2c(c1)CN(Cc1ccccc1F)C(=O)CO2)c1ccccc1F as the compound, how does the Potency read?
The Potency was inconclusive: 17.8 µM [inhibitor, single point].

For O=C(c1cccs1)N1CCCC(c2noc(COc3ccccc3F)n2)C1 (stereo unspecified), which Potency is on record?
The Potency was “inactive”.

Which Potency does the source give for Cc1nn(-c2ccccc2)c(C)c1[C@@H]1C=C[C@@H](NCc2cccc(C#N)c2)C1 here?
The Potency was “inactive”.

Which Potency does the source give for O=C(Nc1ccc(F)c(Cl)c1)N1CCC(Oc2ncccc2C(=O)N2CCCCC2)C1 (stereo unspecified) here?
The Potency was inconclusive: 10 µM [inhibitor, single point].

Which Potency does the source give for COCCC1(NS(C)(=O)=O)CCN(C(=O)Nc2ccc3c(c2)OCCO3)CC1 here?
Its Potency is inconclusive: 1.58 µM [inhibitor, single point].

For CCOc1ccccc1CNC(=O)C1CCN(S(=O)(=O)c2c(C)noc2/C=C/c2ccccc2F)CC1, which Potency is on record?
Its Potency is inconclusive: 17.8 µM [inhibitor, single point].

Which Potency does the source give for COc1ccc(CC(=O)Nc2cc(-c3cn4cccnc4n3)ccc2C)cc1OC here?
Its Potency is inconclusive: 12.6 µM [inhibitor, single point].

For OCc1ccc(CN2Cc3[nH]cnc3C[C@H]2c2nc(-c3ccncc3)no2)o1, which Potency is on record?
The Potency was active: 14.1 µM.

For Cc1cn2nc(C(=O)N3CCC(NC(=O)c4sccc4C)CC3)cc2c(=O)[nH]1, which Potency is on record?
Its Potency is inconclusive: 20 µM [inhibitor, partial curve, poor fit].

With Cc1ccc(CNC(=O)N2CC[C@@H]3C(=O)NCCCCCCN(Cc4ccncc4)[C@@H]3C2)cc1 as the compound, how does the Potency read?
Its Potency is inconclusive: 17.8 µM [inhibitor, single point].

For O=C(c1nc(-c2ccc(Cl)cc2Cl)c2ccccn12)N1CCCC1, which Potency is on record?
The Potency was “inactive”.

Which Potency does the source give for CC(=O)N1CCc2c(sc3c2c(=O)n(-c2ccc(F)cc2)c(=O)n3Cc2ccc(C#N)cc2)C1 here?
The Potency was “inactive”.

For Cn1c(-n2cccc2)c(-c2c(-c3ccc(F)cc3)[nH]c3c2c(=O)n(C)c(=O)n3C)c(=O)n(C)c1=O, which Potency is on record?
Its Potency is inconclusive: 0.112 µM [inhibitor, partial curve].

For N#Cc1cccc(CN2CCC3(CC2)CC(Cc2nc(C4CC4)no2)CCO3)c1 (stereo unspecified), which Potency is on record?
Its Potency is inconclusive: 3.98 µM [inhibitor, full curve, poor fit].

For Cc1cc(C(=O)N2CC(Oc3cccc(-c4nc(-c5ccccc5)no4)c3)C2)n[nH]1, which Potency is on record?
Its Potency is inconclusive: 1 µM [inhibitor, partial curve, poor fit].

For COCCn1ccc2c(OCC(=O)Nc3c(C)cc(C)cc3C)cccc2c1=O, which Potency is on record?
The Potency was “inactive”.

With N#Cc1ccc(C(=O)NC2CCN(c3cc(-c4ccc(Cl)cc4)[nH]n3)C2)cc1 (stereo unspecified) as the compound, how does the Potency read?
Its Potency is active: 7.94 µM.

With Cc1ccc(S(=O)(=O)n2nc(-c3ccc(Cl)cc3)nc2NCc2ccccc2)cc1 as the compound, how does the Potency read?
The Potency was inconclusive: 11.2 µM [inhibitor, partial curve, poor fit].

Which Potency does the source give for CC(Oc1ccccc1)C(=O)Nc1cnc(-c2cccc(Cl)c2)nc1 (stereo unspecified) here?
Its Potency is inconclusive: 0.1 µM [inhibitor, full curve, poor fit].

— PubChem BioAssay AID1347417 (National Center for Advancing Translational Sciences (NCATS), 2020)
